Laboratory results published in the supplement of paper PMC10126150.
Sequences with one replicate were seen in a single cluster, so their values are uncertain.

System: ATP
Assay: switch fluorescence ratio, 500 uM ATP over buffer (Cy3 cluster intensity, sum of 5 cycles each) (fold (ratio)); higher = stronger signal-on switching upon ATP binding; sequences stand for … in TCGTCGGCAGCGTCAGATGTGTATAAGAGACAGTTTTTTTTTTTTTTTTTTTTTTTTT…TC
Settings: aptamer strand: ATP DNA aptamer (quencher-CACCTGGGGGAGTATTGCGGAGGAAGG + anchor), 100 nM annealed; ATP concentration: 500 uM; one replicate
Procedure, shortened: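 Clusters with intensities outside 100-1000 RFU were excluded. The remaining Cy3-labelled switching-strand clusters on a modified Illumina MiSeq flow-cell had been annealed to 100 nM quencher-labelled ATP aptamer and imaged in selection buffer, then after 15 min with 500 uM ATP at 22 °C, for five cycles separated by NaOH stripping and re-annealing. The fluorescence ratio, averaged per switch-domain sequence, is each cluster's summed target-cycle Cy3 intensity over its summed buffer-cycle Cy3 intensity.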
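Further: ATP exposure 15 min at 22 °C before imaging.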

Sequence	switch fluorescence ratio
CTCATCCTCG	1.08
CTCATCGCAG	1.46
CTCATCGCTT	1.12
CTCATGGGTC	1.08
CTCATGGTAC	1.57
CTCATGTCGA	1.02
CTCATTATAT	0.962
CTCCAACGAG	1.13
CTCCAACGGT	1.07
CTCCACTTGT	1.05
CTCCAGCCTA	1.42
CTCCATCGTC	1.1
CTCCATCGTT	1.04
CTCCCCGGAG	1.08
CTCCCGCGTT	1.23
CTCCCGTGGA	1.13
CTCCCTTCAA	1.28
CTCCGGATTT	2.22
CTCCGTCGAG	2.42
CTCCGTCGCC	1.34
CTCCTAGCGG	1.38
CTCCTGTATC	1.72
CTCCTTGTCT	1.08
CTCCTTTGGA	1.02
CTCGAAAATA	1.05
CTCGACACGA	1.11

Sequence	switch fluorescence ratio
CTCGACGGAG	1.01
CTCGAGTTAC	1.14
CTCGATATTT	0.969
CTCGCCGTAG	1.05
CTCGCCGTTG	0.942
CTCGGGAGGA	0.968
CTCGGGGTTC	0.946
CTCGGTCAGT	1.01
CTCGGTTGT	0.968
CTCGTACAGT	1.01
CTCGTACCAG	0.983
CTCGTCTGGG	1.05
CTCGTGCAGC	1.18
CTCGTGCATA	2.22
CTCGTTCAGA	1.01
CTCGTTCGGT	0.974
CTCGTTCTTA	1.02
CTCGTTTGTC	1.05
CTCTAAAATG	1.04
CTCTACCTTA	1.11
CTCTAGAACT	1.01
CTCTAGGGTT	0.999
CTCTATAAGC	1.11
CTCTGACTAC	4.51
CTCTGGCTCT	0.985
CTCTGTGCGG	1.09

Sequence	switch fluorescence ratio
CTCTTACTGT	0.967
CTCTTCCAG	1.07
CTGAACGGG	1.03
CTGAAGTATG	1.02
CTGAATCAGT	0.979
CTGAATCGGT	0.983
CTGAATGCCT	1.37
CTGACAAAGT	1.12
CTGACGGAGC	4.88
CTGACGTGTA	1.45
CTGACTAAAG	0.992
CTGACTCGCT	2.45
CTGACTGAAT	1.05
CTGACTGGGG	1
CTGAGAAGTA	0.983
CTGAGGATGG	1.03
CTGAGGGTGA	1.01
CTGAGGTC	0.857
CTGAGTCAGT	1.02
CTGAGTGCG	1.07
CTGAGTTCA	0.988
CTGATACGTT	0.95
CTGATCCATT	0.999
CTGATCGGCA	1.15
CTGATTAATT	1.02
CTGATTTTTC	0.973

Sequence	switch fluorescence ratio
CTGCAAGAAG	1.01
CTGCAATATC	1.24
CTGCAGGGTA	1.11
CTGCATGCAG	0.981
CTGCATGGA	1.2
CTGCATGTCC	1.49
CTGCCAATTA	1.24
CTGCCACAGA	1.03
CTGCGACAAA	1.03
CTGCGACTCA	1.15
CTGCGCTCTC	2.28
CTGCGGGAAC	1.19
CTGCGGTATG	1.05
CTGCGTAATA	3.68
CTGCGTGGTG	1.03
CTGCTACTAG	1.08
CTGCTAGTCC	1.29
CTGCTCAGAA	0.955
CTGCTCGCGA	4.21
CTGCTGAGAG	0.964
CTGCTGCACA	1.25
CTGCTGGGAC	1.25
CTGCTTGATT	1.03
CTGCTTTCGG	0.993
CTGGAAAAAT	0.986
CTGGAAGCAT	1.54

Sequence	switch fluorescence ratio
CTGGAAGGCG	0.991
CTGGAAGTAA	1.11
CTGGACGAAT	1.03
CTGGAGCTTG	1.09
CTGGAGGGG	0.967
CTGGAGTC	0.99
CTGGATTGAC	1.05
CTGGCCATGT	1.02
CTGGCGCGCC	1.05
CTGGCTAGAT	0.983
CTGGCTGAAG	1.02
CTGGCTTATG	0.958
CTGGGAACAA	1.06
CTGGGAAGCT	1.04
CTGGGACTAC	1.18
CTGGGCAGTG	1.04
CTGGGCGACA	1.02
CTGGGGAGCC	0.993
CTGGGGCTCG	0.939
CTGGGGTACC	1.01
CTGGGGTGG	0.94
CTGGGTATGG	0.961
CTGGGTCATT	1.01
CTGGGTGACG	1.02
CTGGGTGGCT	1.02
CTGGTAAGAG	0.997

Sequence	switch fluorescence ratio
CTGGTACAAC	1.03
CTGGTAGGTA	0.986
CTGGTATCTC	1.04
CTGGTATTGA	1.01
CTGGTCCCTG	0.955
CTGGTCTGT	0.968
CTGGTGTATA	1.06
CTGGTTGGAC	1.04
CTGTACGGGA	1.12
CTGTATACG	1.03
CTGTATATCG	0.938
CTGTCAAAG	0.968
CTGTCACAGC	1.04
CTGTCGGGAT	1.13
CTGTCGGTGC	1.08
CTGTCTATGG	1
CTGTCTTCTT	0.996
CTGTCTTTT	0.957
CTGTGATCCG	1.03
CTGTGCACGT	1.02
CTGTGCGTGC	1.09
CTGTGGGTAT	1.03
CTGTGGGTGA	0.977
CTGTGTACAC	0.965
CTGTGTACT	1.03
CTGTTAAACT	1.02

Sequence	switch fluorescence ratio
CTGTTAAGGA	1.02
CTGTTACGAA	1.03
CTGTTACGAT	1.01
CTGTTAGTAT	0.968
CTGTTCAAGT	1.02
CTGTTGAAC	1.03
CTGTTTATTC	1.05
CTGTTTGTTA	0.977
CTGTTTTTAA	1.02
CTTAAAACCA	0.971
CTTAACCGTC	1.04
CTTAACTGTG	0.913
CTTAAGATAG	1.1
CTTAAGTCGT	0.939
CTTAATTGCC	0.975
CTTACACGAA	1.02
CTTACAGGTC	0.999
CTTACATTCT	1.11
CTTACGGAAA	1.02
CTTACTTTGA	0.996
CTTAGACGTG	1.02
CTTAGCCGGC	1.06
CTTAGCTTTA	1.04
CTTAGGCCTA	1.01
CTTAGGCTTT	0.956
CTTAGGG	0.992

Sequence	switch fluorescence ratio
CTTAGTAGAC	1.08
CTTAGTATAC	1.18
CTTAGTCCCG	0.996
CTTAGTCTAC	1.07
CTTAGTTTTA	1.01
CTTATATCTC	1.03
CTTATCACCC	0.974
CTTATCACGA	1.02
CTTATCATCC	1.03
CTTATGCCTG	0.993
CTTATTAATG	1
CTTCAAAACT	1.02
CTTCAAGTTA	1.05
CTTCACCGTA	1
CTTCACTGTG	1.01
CTTCATAGC	1.03
CTTCATTACA	1.03
CTTCCATCCC	1.1
CTTCCCCCCT	1.34
